Measurements published in PMC4336329 (PLoS ONE, 2015).
About 14,000 (4.5%) of roughly 310,000 compounds showed an effect of 50% or more. The effect is printed as a negative number. This is one part of the list.

target: human ether-à-go-go-related gene (hERG) potassium channel (human, UniProt Q12809); experiment: primary screen, population patch clamp on CHO cells stably expressing hERG
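Note: peak tail current of the secondary pulse compared with the same well before compound.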

Sequence of human ether-à-go-go-related gene (hERG) potassium channel (Q12809 whole entry, looked up): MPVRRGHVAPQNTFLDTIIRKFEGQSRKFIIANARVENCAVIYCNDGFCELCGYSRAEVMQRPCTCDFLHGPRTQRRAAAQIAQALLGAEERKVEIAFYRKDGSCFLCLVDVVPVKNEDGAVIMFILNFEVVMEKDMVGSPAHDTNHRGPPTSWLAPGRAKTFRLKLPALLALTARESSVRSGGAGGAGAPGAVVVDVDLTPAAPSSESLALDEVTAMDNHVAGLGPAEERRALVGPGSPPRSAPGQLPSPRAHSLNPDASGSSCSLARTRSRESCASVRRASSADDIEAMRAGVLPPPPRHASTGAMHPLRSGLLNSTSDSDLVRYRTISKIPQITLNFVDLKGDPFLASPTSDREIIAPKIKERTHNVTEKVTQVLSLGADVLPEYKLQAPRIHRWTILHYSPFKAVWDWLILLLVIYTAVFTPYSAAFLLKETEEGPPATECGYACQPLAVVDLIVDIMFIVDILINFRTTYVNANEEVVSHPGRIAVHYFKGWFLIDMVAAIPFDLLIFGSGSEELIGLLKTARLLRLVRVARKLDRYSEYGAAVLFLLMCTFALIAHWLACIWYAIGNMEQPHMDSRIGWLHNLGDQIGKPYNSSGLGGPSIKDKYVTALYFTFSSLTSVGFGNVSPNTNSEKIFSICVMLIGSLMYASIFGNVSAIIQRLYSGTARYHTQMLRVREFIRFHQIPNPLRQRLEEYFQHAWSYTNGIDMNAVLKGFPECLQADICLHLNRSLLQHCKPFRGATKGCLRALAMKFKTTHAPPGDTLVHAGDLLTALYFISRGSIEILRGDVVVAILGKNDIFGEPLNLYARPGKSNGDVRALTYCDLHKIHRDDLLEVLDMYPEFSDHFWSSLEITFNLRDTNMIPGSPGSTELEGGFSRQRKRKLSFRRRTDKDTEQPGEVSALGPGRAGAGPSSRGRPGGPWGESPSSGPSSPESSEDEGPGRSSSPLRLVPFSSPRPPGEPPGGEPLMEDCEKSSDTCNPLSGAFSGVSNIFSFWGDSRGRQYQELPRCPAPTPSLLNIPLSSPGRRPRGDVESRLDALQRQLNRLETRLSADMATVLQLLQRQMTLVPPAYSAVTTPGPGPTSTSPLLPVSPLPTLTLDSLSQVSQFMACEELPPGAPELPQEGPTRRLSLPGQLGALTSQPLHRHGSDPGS

SMILES	hERG current change (%, negative = inhibition) at 10uM [%]
Nc1ncnc2nc(SCc3ccccc3)[nH]c12	-15.3
CO/N=C(/COc1ccc(F)cc1)c1ccc(OC)cc1	20
COc1ccc(CCNC(=O)c2ccc(NS(=O)(=O)c3c(C)noc3C)cc2)cc1OC	-1.45
Cc1ccc(-n2c(=O)[nH]cc(C(=O)Nc3ccc4c(c3)OCCO4)c2=O)cc1	18.3
CC(C)(C)n1nnnc1C(c1cccnc1)N1CCOCC1 (centres unmarked)	-6.29
CCN1CCN(CC(O)COc2cccc(OC)c2)CC1.Cl (centres unmarked)	3.43
CCN(CC)Cc1ccccc1CNC(=O)c1cccc(S(=O)(=O)Nc2ccc3c(c2)OCO3)c1	-71.3
COC(=O)C1CCN(C(=O)c2ccc3nc(-c4cccc(OC)c4)oc3c2)CC1	-9.82
O=C(CN1C(=O)C2CC=CCC2C1=O)Nc1ccc(S(=O)(=O)Nc2nccs2)cc1 (centres unmarked)	5.93
CCc1cc(C(=O)NNC(=S)Nc2cccc(C)c2)cs1	3.09
COc1cccc(C(c2nnnn2Cc2ccccc2)N2CCN(C3CCCC3)CC2)c1OC.Cl (centres unmarked)	-32
CCCN1CN=C(Nc2nc3ccccc3o2)NC1	4.33
N=c1oc2cc(O)ccc2cc1C(=O)Nc1ccc(F)cc1	22
Cc1ccc(C(=O)N(C)Cc2ccccc2)cc1S(=O)(=O)N1CCOCC1	-12.8
Cc1ccc2cc(CN(CCCN(C)C)C(=S)NCc3ccccc3)c(=O)[nH]c2c1C	-50.3
S=C(c1c[nH]c2ccccc12)N1CCOCC1	23.5
CC(C)C(NS(=O)(=O)c1cccs1)C(=O)NCc1ccc2c(c1)OCO2 (centres unmarked)	-12
CCOc1ccccc1NC(=O)CSC1=NN2CCCC(=O)N=C2S1	-2.8
CCCOP(=O)(c1ccc(N(C)C)cc1)C(Nc1ccccc1)c1ccc(C)cc1 (centres unmarked)	-30.8
O=C(/C=C/c1ccco1)NC(=S)Nc1ccc(O)c(-c2nc3ccccc3s2)c1	13.2
CCN(Cc1ccccc1)C(=O)COC(=O)c1cnc(C)cn1	27.8
O=C(Nc1ccccc1N1CCCCC1)c1ccc2nccnc2c1	-11.8

SMILES	hERG current change (%, negative = inhibition) at 10uM [%]
Cc1ccc(CNC(=O)CN(c2ccc(C(C)C)cc2)S(=O)(=O)c2c(C)noc2C)cc1	7.25
C#CCN1N=C(c2ccc(C)cc2)CSC1=O	13.9
COc1cc(/C=C2\C(C)=C(C#N)c3nc(N)c(C#N)c(C)c32)ccc1OCC(=O)O	11.1
FC(F)Oc1ccc(NC(=S)N2CCN(Cc3ccccc3)CC2)cc1	-56
COc1cccc(CN2C(=O)N(C(C)C)C(N(O)C(=O)NC(C)C)C2(C)C)c1OC (centres unmarked)	16.2
Cc1ccc(N2CC(=O)Nc3c(sc4nc(C)cc(C)c34)C2=O)cc1	6.8
C=CCNC(=O)C1CC2Cn3c(nc4cc(Cl)c(Cl)cc43)C2N1C (centres unmarked)	-35.4
Cc1nc(C(=O)N(C)C)nn1-c1ccc(Cl)cc1Cl	10.3
O=C([O-])c1cc([N+](=O)[O-])ccc1Nc1ccccc1.[Na+]	-1.84
CCC(=O)c1ccc(OCC(=O)OCC(=O)N2c3ccccc3CC2C)cc1 (centres unmarked)	-11.8
Cc1cc(CNC(=O)C2CCC(=O)N(Cc3ccccc3F)C2)on1 (centres unmarked)	9.42
COc1ccc(S(=O)(=O)NCC(c2cccnc2)N2CCN(Cc3ccccc3)CC2)cc1 (centres unmarked)	-58.5
COc1ccc([N+](=O)[O-])cc1/C=N/Nc1nn[nH]n1	19.1
CCOC(=O)C1CCCN(c2ccc(NC(=O)c3snc4c(=O)[nH]c(C)nc34)cc2)C1 (centres unmarked)	0.303
Cc1cc(NC(=O)COc2c(C)cccc2C)no1	22.3
O=[N+]([O-])c1cccc(-c2ccc(/C=N/NC(=S)Nc3ccccc3)o2)c1	19.5
CCC(=O)Nc1c(C(=O)N2CCCCCC2)cnn1-c1ccc(C)c(C)c1	-12.7
Cn1c(SCC(=O)N(Cc2ccccc2)C(C)(C)C)nc2ccccc21	0.986
COc1ccc(OC)c(C2=NOC(C(=O)N3CCN(c4ccccc4)CC3)C2)c1 (centres unmarked)	-19.1
O=C(CCCCCNC(=O)c1ccccc1)N/N=C/c1ccc(F)cc1	-18.8
Cc1ccccc1NC(=O)N(CCc1nc2ccccc2[nH]1)Cc1ccccc1	-12.9
COc1ccc(/C=C/C(=O)Nc2ccc3nc4n(c(=O)c3c2)CCCC4)cc1	22.7
